In patent US6121271A, “Naphtho[2,3-B]heteroar-4-yl derivatives” (American Home Products Corporation, priority 1999, dated 2000) one finds IC50 data, which are given here for two compounds.

By IC50 is commonly meant the concentration that inhibits the measured activity by half.

For the experiment, the target named is T1, recombinant, human protein tyrosine phosphatase (PTP) 1B (Homo sapiens, UniProt P18031).
T1 sequence (P18031 1-435): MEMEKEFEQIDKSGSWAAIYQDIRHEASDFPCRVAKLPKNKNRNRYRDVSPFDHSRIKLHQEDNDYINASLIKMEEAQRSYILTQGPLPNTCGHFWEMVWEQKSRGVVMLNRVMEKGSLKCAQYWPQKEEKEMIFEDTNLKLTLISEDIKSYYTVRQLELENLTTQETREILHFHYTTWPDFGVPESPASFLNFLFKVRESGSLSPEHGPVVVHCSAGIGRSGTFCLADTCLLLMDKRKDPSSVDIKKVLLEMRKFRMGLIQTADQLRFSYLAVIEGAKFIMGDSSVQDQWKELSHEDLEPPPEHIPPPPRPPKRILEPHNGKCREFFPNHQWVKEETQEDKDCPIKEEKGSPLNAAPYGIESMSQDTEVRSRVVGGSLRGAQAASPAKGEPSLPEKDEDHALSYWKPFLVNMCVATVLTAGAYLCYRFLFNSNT

For `COc1cccc(C(=O)Oc2cc(S(=O)(=O)Oc3c(C)cc(-c4c5ccccc5c(Br)c5sc(C)c(C)c45)cc3C)ccc2C(=O)O)c1` [Example 29, 2-(3-Methoxy-benzoyl)oxy-4-[4-(9-bromo-2,3-dimethyl-naphtho[2,3-b]thiophen-4-yl)-2,6-dimethyl-phenoxysulfonyl]-benzoic acid], the IC50 was 38 nM.

`Cc1cc(-c2c3ccccc3c(Br)c3sc(C)c(C)c23)cc(C)c1OS(=O)(=O)c1ccc(C(=O)O)c(OC(=O)c2ccncc2)c1` [Example 30, Isonicotinic acid 5-[4-(9-bromo-2,3-dimethyl-naphtho[2,3-b]thiophen-4-yl)-2,6-dimethyl-phenoxysulfonyl]-2-carboxy-phenyl ester]: the IC50 was determined as 37 nM.
